Source: the supplement of paper PMC4967469
Lines with a small IC50 respond at low doses; fits outside the tested doses are given as limits. AUC sums up the same curve from the lowest dose to the 256-fold higher top dose: 1 means no effect, lower means more sensitive. For part of these data: An inferred top dose comes from the curve model; the source does not state it.

Experiments:
Experiment in all cases: Viability of human cancer cell lines after 72 h of drug (GDSC screen)
BIX02189 = compound: CN(C)Cc1cccc(N=C(c2ccccc2)c2c(O)[nH]c3cc(C(=O)N(C)C)ccc23)c1 [BIX02189]; details: top dose 20 µM; top dose inferred
Protocol: (§1)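 Human cancer cell lines in 384-well plates, medium with 10% serum, drug for 72 h over a 256-fold dose range (nine 2-fold or five 4-fold steps up to the top dose). Adherent lines were fixed and stained with the nucleic acid dye Syto60, suspension lines read with resazurin; signal relative to control wells, capped at 0 and 100%. One two-parameter sigmoid per drug and line, fitted in a mixed model over all curves with the slope shared within a line.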

TG101348 = compound: Cc1cnc(Nc2ccc(OCCN3CCCC3)cc2)nc1Nc1cccc(S(=O)(=O)NC(C)(C)C)c1 [TG101348]; details: top dose 10.24 µM
Protocol: as §1

OSI-027 = compound: COc1cccc2cc(-c3nc([C@H]4CC[C@H](C(=O)O)CC4)n4ncnc(N)c34)[nH]c12 [OSI-027]; details: top dose 20 µM
Protocol: as §1

Doxorubicin = compound: COc1cccc2c1C(=O)c1c(O)c3c(c(O)c1C2=O)C[C@@](O)(C(=O)CO)C[C@@H]3O[C@H]1C[C@H](N)[C@H](O)[C@H](C)O1 [Doxorubicin]; details: top dose 1.024 µM
Protocol: as §1

Dimethyloxalylglycine = compound: COC(=O)CNC(=O)C(=O)OC [Dimethyloxalylglycine]; details: top dose 4000 µM; top dose inferred
Protocol: as §1

VX-11e = compound: Cc1cnc(Nc2ccc(F)cc2Cl)nc1-c1c[nH]c(C(=O)N[C@H](CO)c2cccc(Cl)c2)c1 [VX-11e]; details: top dose 5.12 µM; top dose inferred
Protocol: as §1

CCT018159 = compound: CCc1cc(-c2n[nH]c(C)c2-c2ccc3c(c2)OCCO3)c(O)cc1O [CCT018159]; details: top dose 10 µM; top dose inferred
Protocol: as §1

UNC1215 = compound: O=C(c1ccc(C(=O)N2CCC(N3CCCC3)CC2)c(Nc2ccccc2)c1)N1CCC(N2CCCC2)CC1 [UNC1215]; details: top dose 1 µM; top dose inferred
Protocol: as §1

Vismodegib = compound: CS(=O)(=O)c1ccc(C(=O)Nc2ccc(Cl)c(-c3ccccn3)c2)c(Cl)c1 [Vismodegib]; details: top dose 10 µM; top dose inferred
Protocol: as §1

17-AAG = compound: C=CCNC1=C2C[C@@H](C)C[C@H](OC)[C@H](O)[C@@H](C)/C=C(\C)[C@H](OC(N)=O)[C@@H](OC)/C=C\C=C(/C)C(=O)NC(=CC1=O)C2=O [17-AAG]; details: top dose 1 µM
Protocol: as §1

| Cell Line | AUC (BIX02189) | IC50 (BIX02189) [µM] | AUC (TG101348) | IC50 (TG101348) [µM] | AUC (OSI-027) | IC50 (OSI-027) [µM] | AUC (Doxorubicin) | IC50 (Doxorubicin) [µM] | AUC (Dimethyloxalylglycine) | IC50 (Dimethyloxalylglycine) [µM] | AUC (VX-11e) | IC50 (VX-11e) [µM] | AUC (CCT018159) | IC50 (CCT018159) [µM] | AUC (UNC1215) | IC50 (UNC1215) [µM] | AUC (Vismodegib) | IC50 (Vismodegib) [µM] | AUC (17-AAG) | IC50 (17-AAG) [µM] |
| --- | --- | --- | --- | --- | --- | --- | --- | --- | --- | --- | --- | --- | --- | --- | --- | --- | --- | --- | --- | --- |
| HCC-33 (small cell lung carcinoma, adherent) | 0.962 | > 20 | 0.695 | 2.27 | 0.682 | 4.06 | 0.93 | > 1.02 | 0.536 | 314 | 0.984 | > 5.12 | – | – | – | – | – | – | – | – |
| KP-N-YS (neuroblastoma, adherent) | 0.866 | > 20 | 0.605 | 1.3 | 0.23 | 0.179 | 0.691 | 0.239 | 0.743 | 1400 | 0.972 | > 5.12 | – | – | – | – | – | – | – | – |
| NCI-H2228 (lung adenocarcinoma, adherent) | 0.926 | > 20 | 0.887 | > 10.2 | 0.689 | 5.61 | 0.274 | 0.0103 | 0.313 | 56.9 | 0.961 | > 5.12 | – | – | – | – | – | – | – | – |
| HEL (acute myeloid leukaemia, semi-adherent) | 0.886 | 15.7 | – | – | 0.334 | 0.471 | 0.673 | 0.177 | 0.482 | 226 | 0.958 | > 5.12 | 0.919 | > 10 | 0.99 | > 1 | – | – | – | – |
| NCI-H2196 (small cell lung carcinoma, adherent) | 0.967 | > 20 | 0.894 | > 10.2 | 0.32 | 0.381 | 0.713 | 0.266 | 0.799 | 2040 | 0.978 | > 5.12 | – | – | – | – | – | – | – | – |
| SU-DHL-1 (anaplastic large cell lymphoma, suspension) | 0.997 | > 20 | 0.874 | 5.49 | 0.161 | 0.183 | 0.566 | 0.0923 | 0.609 | 457 | 0.997 | > 5.12 | – | – | – | – | – | – | – | – |
| NK-92MI (lymphoid neoplasm, suspension) | – | – | – | – | – | – | 0.772 | 0.369 | 0.358 | 104 | – | – | – | – | – | – | – | – | – | – |
| HPAC (pancreas, adherent) | 0.906 | > 20 | 0.849 | > 10.2 | 0.571 | 2.11 | 0.501 | 0.0644 | 0.416 | 134 | 0.587 | 0.612 | 0.947 | > 10 | – | – | – | – | – | – |
| UACC-812 (breast, adherent) | 0.99 | > 20 | 0.948 | > 10.2 | 0.93 | > 20 | 0.959 | > 1.02 | 0.844 | 2710 | 0.99 | > 5.12 | – | – | – | – | – | – | – | – |
| CAL-51 (breast, adherent) | 0.991 | > 20 | 0.942 | > 10.2 | 0.87 | 14.6 | – | – | 0.479 | 221 | 0.991 | > 5.12 | 0.799 | 4.06 | 0.977 | > 1 | 0.952 | > 10 | 0.343 | 0.0245 |
| BC-3 (B-cell lymphoma, suspension) | 0.921 | > 20 | 0.708 | 2.29 | 0.299 | 0.364 | 0.664 | 0.173 | 0.512 | 269 | 0.9 | > 5.12 | – | – | – | – | – | – | – | – |
| HCE-4 (oesophagus, adherent) | 0.992 | > 20 | 0.99 | > 10.2 | 0.992 | > 20 | 0.309 | 0.0204 | 0.641 | 576 | 0.992 | > 5.12 | 0.991 | > 10 | – | – | – | – | – | – |
| 5637 (bladder, adherent) | 0.968 | > 20 | 0.791 | 4.14 | 0.62 | 2.59 | – | – | 0.692 | 812 | 0.952 | > 5.12 | 0.862 | 7.27 | 0.989 | > 1 | 0.982 | > 10 | 0.492 | 0.0595 |
| 769-P (kidney, adherent) | 0.94 | > 20 | 0.751 | 3.64 | 0.455 | 0.933 | 0.339 | 0.0218 | 0.933 | > 4000 | 0.823 | 3.38 | – | – | 0.98 | > 1 | – | – | – | – |
| UACC-257 (melanoma, adherent) | 0.904 | > 20 | 0.914 | > 10.2 | 0.479 | 1.08 | – | – | 0.694 | 1010 | 0.766 | 2.35 | 0.972 | > 10 | 0.979 | > 1 | 0.982 | > 10 | 0.796 | 0.606 |
| T98G (glioma, adherent) | 0.956 | > 20 | 0.891 | > 10.2 | 0.805 | 9.21 | – | – | 0.641 | 593 | 0.986 | > 5.12 | 0.888 | 9.8 | 0.966 | > 1 | 0.987 | > 10 | 0.468 | 0.0516 |
